Over roughly 33,000 sequences, “E-score (-0.5 to 0.5)” has its median near -0.011; the highest 2% begin near 0.28. This is one part of the list.
Target: T1, Gcr1 (UniProt P07261)
T1 sequence: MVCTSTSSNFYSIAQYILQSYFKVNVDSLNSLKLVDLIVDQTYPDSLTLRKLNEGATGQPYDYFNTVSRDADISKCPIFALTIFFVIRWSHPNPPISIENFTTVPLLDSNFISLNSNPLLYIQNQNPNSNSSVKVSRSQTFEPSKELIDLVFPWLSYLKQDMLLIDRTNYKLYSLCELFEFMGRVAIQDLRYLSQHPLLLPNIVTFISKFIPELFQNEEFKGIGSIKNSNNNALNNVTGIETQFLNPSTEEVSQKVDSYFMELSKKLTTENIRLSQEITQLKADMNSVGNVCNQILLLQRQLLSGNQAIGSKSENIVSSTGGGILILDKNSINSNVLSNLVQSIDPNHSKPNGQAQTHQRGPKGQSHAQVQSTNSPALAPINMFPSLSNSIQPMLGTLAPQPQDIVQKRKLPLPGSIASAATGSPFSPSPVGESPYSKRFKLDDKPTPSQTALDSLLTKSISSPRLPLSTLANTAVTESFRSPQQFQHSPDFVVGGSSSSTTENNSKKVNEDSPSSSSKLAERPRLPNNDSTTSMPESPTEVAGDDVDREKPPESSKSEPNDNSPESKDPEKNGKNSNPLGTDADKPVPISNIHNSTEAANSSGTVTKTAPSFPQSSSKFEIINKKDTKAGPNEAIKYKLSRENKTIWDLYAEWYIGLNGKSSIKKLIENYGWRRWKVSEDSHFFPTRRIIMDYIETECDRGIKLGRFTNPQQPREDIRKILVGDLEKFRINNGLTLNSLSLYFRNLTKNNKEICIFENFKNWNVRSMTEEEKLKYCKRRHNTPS
Assay: PBM E-score (8-mer binding enrichment) (E-score (-0.5 to 0.5)); higher = stronger / more preferred TF binding; most listed sequences are background and not binding sites
Settings: protein concentration: 100 nM; construct: GST-full length
How it was run: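 PURExpress in vitro transcription/translation supplied GST-tagged yeast transcription factors, either full-length or DNA-binding domain. Applied at about 100-200 nM to universal all-10-mer Agilent arrays double-stranded by primer extension, the bound protein was detected with fluorescent anti-GST. E-scores, modified Wilcoxon-Mann-Whitney statistics, were given by the Universal PBM Analysis Suite to ungapped eight-base words pooled with their reverse complements after masliner normalisation.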

Sequence	PBM E-score
ATTCCATG	0.0861
ATTACGCA	0.0726
CTATGCCC	0.0148
AAACTGGG	0.109
ACCTTGTC	-0.0797
AGAGTTCC	-0.007
AGAGTCCG	0.054
ACTCCGTG	-0.04
GATATACA	0.0603
AACAGGTC	-0.0851
TGACAGAA	-0.0387
ATGAAAAC	0.108
ACTACACA	-0.00578
CAGATGGA	0.137
CGCGATAA	0.0174
ATGCATTG	-0.212
AGGGGCCG	0.0208
CTCCTAAG	-0.0584
GGGTGATA	0.0068
CACAGACA	0.0543
CCGATAAA	0.0653
TCGCGTCA	-0.044
CCCGGAGC	-0.144
GTCCATTA	0.126
GCACTATA	-0.0261

Sequence	PBM E-score
AACGACCC	-0.158
ATGTCTGC	-0.171
CCGCCATA	-0.0635
GCACACCA	-0.0167
ATTCTTCC	-0.0172
CCCACTCC	0.0066
AAGCCACA	0.186
CATCTCCG	0.0204
GACTACTC	0.0135
CCGTGCAG	0.00756
GAAGCACC	-0.0228
CCGGACAC	-0.0607
ATCTTGCA	0.00208
GCATATCC	-0.122
CGTCCAGA	0.233
TACTACCA	-0.00989
CAAAGATA	0.0616
ATCGGATC	0.0284
AGGCGTTA	-0.113
CAATCCAA	-0.0473
ACGTGTAC	0.0045
AGTATAAT	-0.0847
CTCGCCGA	-0.135
CAGAGGCA	-0.0667
AGACGGAT	-0.0482

Sequence	PBM E-score
AAGCCGCT	0.159
ATAGAAAA	-0.0541
ACCGTATA	0.0317
ATATGTAC	0.0201
CGCGCACC	0.091
AGAGCAGA	-0.0478
GAACGCGA	0.0259
CGAATTCG	0.164
AGCGCTCA	-0.218
CCTTGTCA	-0.149
AAATGTGA	0.0864
AATGACGA	-0.076
AATATTGC	0.0005
CCTGAATA	0.15
CACACAGC	-0.138
CATAATAA	0.0747
AATTGCGT	-0.0183
AGATACTG	0.0645
ACTCTCAC	-0.112
AGCGGAAT	0.217
CGAACGCC	-0.137
GATCATTA	0.00216
GCAGTCAA	-0.0612
AGCTGGGC	0.107
CCAAATGA	0.215

Sequence	PBM E-score
CACGATAG	-0.0624
AGTTACAG	-0.0313
ACACGGTC	-0.274
ATGCACTG	-0.153
AATATTTA	0.162
GCCAAGGC	-0.253
CAGTGTCG	-0.122
CTAAAAAG	0.183
TCCACACA	-0.0477
AGATCGAC	-0.0758
AAATTCGA	-0.042
GGCATTGA	0.0123
CGTATAGC	-0.0455
AGAACAAT	0.146
CACTACTC	-0.0981
ACCAAAGA	0.139
TAGCAATA	0.0436
ATTGGGAG	-0.141
AAAGTGTG	-0.0476
AAAACTCC	-0.136
CCAACACC	0.0562
GTCGTAAA	0.0176
CCCTATTC	-0.0171
AGGAGCCG	0.269
CCCGCTGA	-0.133

Sequence	PBM E-score
ATTCCCGC	0.221
ACATAGCC	-0.146
AGAGAACA	-0.148
GGTGGTCA	-0.132
ACTCCACC	0.0234
ATCTTTTC	0.0492
TGTGGAAA	0.174
AACTATTC	-0.0187
AGGCAGAG	-0.193
ACGGGAGT	-0.0762
CCCTGCAA	-0.187
CTTAACAC	0.00017
AAGCCCTA	0.0541
CAAGCGTA	-0.182
CACCTCGC	-0.161
AGTTATTG	-0.0268
CGGCTATC	-0.102
CTGGCCAA	-0.00374
AAGGGGCC	0.206
ACGGTTGC	-0.264
GTTATCGA	0.0381
ACTTAAAA	0.189
ATGCGCGC	0.0774
GTATCAAA	0.0208
CCTTGGCA	0.00218

Sequence	PBM E-score
CACATTCC	0.00327
CCCATAGG	-0.0627
ATTCCCGG	0.126
ACAGCGAC	0.0284
AGGTAGAG	-0.184
CGGCAGTA	-0.0464
GGCCCATA	-0.0625
GGACGCTA	0.363
AAGCTTGC	-0.0383
ACCGCGAC	0.00022
CCGTAGAA	0.104
GCTCAAGC	-0.249
TTAAGAAA	0.0367
AAAAATAA	0.0783
CCCGGTCC	-0.0935
CACGTGGG	-0.0349
AGAAAATA	0.0226
GAATTCCA	0.369
AAATCTTC	0.0977
GATAGAAA	0.0681
TCCCAGGA	0.0364
ACCTGCCT	-0.218
ATACGGAA	0.221
CTAGATAG	0.131
AGTCACGC	-0.118

Sequence	PBM E-score
CCGATCGA	-0.0301
TGGCCCCA	0.0932
AGAGAACC	0.0209
ACTTGGGC	-0.117
CCTAAGAG	0.0504
TCGAAACA	0.0146
CTTCCAGC	0.123
TCCGTCGA	-0.0994
GTCATCGA	-0.118
CTCCTCAG	-0.111
GCGGGCAC	0.277
CAGGGGCC	0.0162
ACTCGAGA	-0.0317
GCCCTTAC	-0.0542
ACCACCAG	0.166
CTATAAGA	0.115
AGGTTACG	-0.144
CTTGTAAC	0.142
CTCGAGTA	0.164
AGCTTTTC	-0.206
AGAGGTCG	0.0297
CGGAGGTA	-0.0814
ATGCTTTA	-0.0458
TCCTGCGA	-0.121
GGCGCGCA	0.171

Sequence	PBM E-score
CTGACATC	0.147
ATTTCAGC	-0.0316
TAATTCGA	-0.0807
ATACTTAA	0.161
AATGCAAC	-0.0227
CTTTTGGC	-0.187
TACGAGGA	0.0036
AATACTTA	0.0503
ACATTAGT	-0.0355
GTAAGCAA	-0.13
CCGCAGTA	-0.198
ACCTGGGA	0.0304
CAGTTTAA	0.15
GAGGTACC	0.0768
AAGTGGTC	0.0307
CTGCCATC	0.087
AAATTATG	0.0598
CATGTCCC	-0.135
CGCATCTA	0.204
CGACACCC	-0.0352
AGAAGTAA	-0.0438
ATTCTGTA	0.0504
ACCCGCTA	0.221
ATTGACGG	-0.0123
CGGTAGAA	-0.165

Sequence	PBM E-score
CGGATTGA	-0.116
AACGTGAC	-0.138
GATCAGCC	-0.0369
TGCAATAA	0.176
CCGTTAAG	-0.0864
AATCAGTG	-0.0232
AGCAAAAC	-0.0711
AATGATGC	0.127
AGCGGATC	-0.0271
AGTTTGGG	0.0924
GTCCAGAC	-0.129
AGCTATCA	0.0321
AGCAACAC	-0.155
GGTCCACC	-0.203
CAGGGTAG	-0.298
AGTCTACG	-0.0187
CCGGGCTA	-0.0612
CTAGTCAC	-0.0102
GTAAGCAC	-0.0366

Source: the supplement of paper PMC3334620
